Key:
[1] = target: T1, TSC2 (human, UniProt P49815 1-1807, limits assumed); assay: GST pull-down from 293T extract, Western blot (FIG. 14)
T1 construct: TSC2 without a stated tag, endogenous or expressed from transfected cDNA in 293T cell extracts; also called tuberin; endogenous TSC2

[2] = target: T2, tyrosinated alpha-tubulin (Tyr-tubulin), endogenous in cell extracts (Homo sapiens (Human), UniProt P68363, tyrosinated at its carboxyl terminus (Tyr-tubulin) where detected with anti-Tyr-tubulin antibodies); assay: as above
T2 construct: Endogenous protein of 293T or BE2C cell extracts; also called Tyr-alpha-tubulin; endogenous alpha tubulin
T2 sequence (P68363 whole entry): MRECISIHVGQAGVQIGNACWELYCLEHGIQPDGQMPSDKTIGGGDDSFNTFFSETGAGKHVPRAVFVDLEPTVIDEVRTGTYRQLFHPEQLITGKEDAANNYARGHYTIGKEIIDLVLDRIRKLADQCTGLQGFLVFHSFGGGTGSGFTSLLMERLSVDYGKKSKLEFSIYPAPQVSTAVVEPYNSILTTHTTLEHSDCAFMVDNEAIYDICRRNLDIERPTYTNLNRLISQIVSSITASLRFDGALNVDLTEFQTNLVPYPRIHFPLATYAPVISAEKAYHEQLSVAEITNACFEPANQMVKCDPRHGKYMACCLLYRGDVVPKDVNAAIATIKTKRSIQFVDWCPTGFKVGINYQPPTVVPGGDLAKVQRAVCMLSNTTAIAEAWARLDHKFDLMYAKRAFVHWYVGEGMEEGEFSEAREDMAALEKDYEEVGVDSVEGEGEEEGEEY

Sequence of TSC2 (P49815 other isoform, or with tags, fused parts or gaps limits assumed): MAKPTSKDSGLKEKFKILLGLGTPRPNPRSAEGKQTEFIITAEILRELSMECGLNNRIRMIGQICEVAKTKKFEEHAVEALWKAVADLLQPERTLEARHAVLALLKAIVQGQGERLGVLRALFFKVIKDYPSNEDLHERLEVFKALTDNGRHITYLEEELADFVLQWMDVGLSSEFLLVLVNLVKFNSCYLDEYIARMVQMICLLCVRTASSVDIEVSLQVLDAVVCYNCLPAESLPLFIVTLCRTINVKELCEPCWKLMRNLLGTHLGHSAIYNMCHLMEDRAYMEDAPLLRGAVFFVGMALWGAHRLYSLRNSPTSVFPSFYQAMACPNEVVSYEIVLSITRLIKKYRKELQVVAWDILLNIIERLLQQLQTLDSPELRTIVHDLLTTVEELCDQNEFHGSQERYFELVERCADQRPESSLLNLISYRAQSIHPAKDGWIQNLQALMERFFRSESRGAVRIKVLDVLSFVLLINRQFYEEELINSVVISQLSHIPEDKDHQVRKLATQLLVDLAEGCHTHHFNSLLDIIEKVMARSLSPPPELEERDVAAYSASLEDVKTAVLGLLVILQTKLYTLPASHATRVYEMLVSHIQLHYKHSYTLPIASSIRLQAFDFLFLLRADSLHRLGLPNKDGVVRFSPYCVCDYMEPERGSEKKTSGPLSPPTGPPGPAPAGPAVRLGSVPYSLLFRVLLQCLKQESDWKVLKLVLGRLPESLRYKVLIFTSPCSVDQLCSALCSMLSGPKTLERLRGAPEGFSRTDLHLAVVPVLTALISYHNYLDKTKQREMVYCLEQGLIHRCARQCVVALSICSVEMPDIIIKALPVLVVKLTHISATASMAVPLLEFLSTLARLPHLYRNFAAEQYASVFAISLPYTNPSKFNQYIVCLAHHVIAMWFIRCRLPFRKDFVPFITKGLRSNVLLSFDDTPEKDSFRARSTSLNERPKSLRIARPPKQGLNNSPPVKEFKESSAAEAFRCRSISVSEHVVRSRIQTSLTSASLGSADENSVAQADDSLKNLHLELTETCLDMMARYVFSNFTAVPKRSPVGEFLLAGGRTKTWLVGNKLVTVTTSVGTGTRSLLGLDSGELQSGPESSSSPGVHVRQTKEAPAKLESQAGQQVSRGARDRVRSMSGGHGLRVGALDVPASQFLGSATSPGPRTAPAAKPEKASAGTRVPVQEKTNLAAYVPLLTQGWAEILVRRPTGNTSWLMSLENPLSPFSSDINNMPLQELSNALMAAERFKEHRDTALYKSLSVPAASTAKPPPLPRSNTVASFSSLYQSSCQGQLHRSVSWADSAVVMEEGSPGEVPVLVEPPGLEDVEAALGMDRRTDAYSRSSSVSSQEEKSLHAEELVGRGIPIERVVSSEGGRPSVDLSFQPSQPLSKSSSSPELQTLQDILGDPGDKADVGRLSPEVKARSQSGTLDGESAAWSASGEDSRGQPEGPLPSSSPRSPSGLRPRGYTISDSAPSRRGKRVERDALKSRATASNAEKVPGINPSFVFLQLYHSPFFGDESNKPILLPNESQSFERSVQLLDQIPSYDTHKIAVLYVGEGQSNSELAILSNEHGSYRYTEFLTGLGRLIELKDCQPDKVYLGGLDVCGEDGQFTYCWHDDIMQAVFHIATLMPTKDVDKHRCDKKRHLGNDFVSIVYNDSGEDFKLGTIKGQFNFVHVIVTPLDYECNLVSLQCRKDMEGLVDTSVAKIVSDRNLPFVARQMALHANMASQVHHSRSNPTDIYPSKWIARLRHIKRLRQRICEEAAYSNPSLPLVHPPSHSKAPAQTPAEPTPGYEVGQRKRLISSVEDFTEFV

binding result [1]: no binding
binding result [2]: no binding
B1: free GST (other)
chain: not shown
notes: Control bait
